From the supplement of paper PMC3724861
Some of the results follow.

These sequences were tested on T1, Caupolican (Caup) homeodomain DNA-binding domain (assay: PBM E-score (8-mer, recovered from the published 9-mer minima) (E-score (dimensionless, -0.5 to 0.5)); Drosophila protein; higher = stronger relative binding preference, active = 0.31 or more).
T1 sequence: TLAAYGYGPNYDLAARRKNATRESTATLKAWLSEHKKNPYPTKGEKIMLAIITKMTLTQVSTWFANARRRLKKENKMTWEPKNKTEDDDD
Outline: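 Caup's homeodomain DNA-binding domain (residues 214-303) was made by in vitro transcription and translation and applied at 100 nM to custom-designed protein binding microarrays. Each value is an enrichment score that gives relative binding preference for a short DNA word, with higher meaning stronger. The 8-mer values were recovered from published 9-mer scores, each of which was the minimum of its two constituent 8-mer scores. A cutoff of 0.31 marks candidate sites.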

PBM E-score, ≥ -0.217:
GTGGGGGA

PBM E-score, inactive:
CCTAAATA 0.0729, ACCCCAAA -0.117, GGGGCCCA -0.322, CAAATCAG 0.151, TACGACGA 0.134, GGCTCATA -0.0512, CTGATAGC -0.0812, CATTCCGA 0.0885, ACTTAAGG -0.0168, ACGGCGCT -0.224, ATAGGTGG 0.0433, ACTCAACG -0.0592, ATTGACCC 0.0307, ACTAAACG 0.0821, CTGACTAC 0.103, GTACGCCA -0.00274, GAAGATGA -0.038, ACCGTACA 0.193, AACGACGA 0.0336, GAGAGCTA -0.0608, ATTGGCCA -0.0658, TGGTGCAA 0.0119, GTCCCTTA -0.00469, CCCATGAG -0.138, ATGAATGA 0.158, GGAAAGCC -0.0924, CGGTCTTC -0.0755, TCCGGCGA -0.0988, GACCTCCA -0.182, AACGCGGC -0.13, CCGGACAA 0.144, GGAGTATA 0.0004, GAAGTGGA -0.0889, AAACCAGC -0.0267, GGGAGGAA -0.185, TAGCGGCA -0.0809, AGCTTACA 0.222, CTCGTAGA -0.036, CGATTCCG -0.127, CTGGGTGC -0.161, ACATCATC 0.251, GGCCAATA -0.00113, AAACTATC 0.0932, ACTGTGAT 0.066, CTCTATAA 0.0928, TACTGACA 0.25, CATATAGG 0.0865, ATAAGCAC 0.116, ACCGGCGA -0.156, ATCCTTAA 0.0253, GGAGTCTA -0.0976, TCTCCTCA -0.075, AAGTAAGC 0.0364, CCGAGGTC -0.225, TACGAGTA 0.189, ATATCTCA 0.0962, GAGGCTGA -0.0439, GGCGAGTA -0.0986, GTGACTAA 0.0922, GAGTCCGA -0.00451, GCCTAAGA -0.103, ACCCACGA -0.0778, ATTATTTG 0.206, ACCTTTCG -0.137, CTCCAGCC -0.334, CTCGTCCC -0.0824, CGATTGGC -0.112, ATCACCCG -0.0714, GATATAAC 0.176, CTTCCCAA -0.0612, GTTCTGGA 0.135, AATGTTTC 0.143, ACAGGTAA 0.216, AATGGATG 0.099, AGACTTAC 0.135, ACCACCCA -0.0744, ATGCTCCG -0.146, AATTTGGT 0.0883, AAGAGTGC 0.0487, AATCGCCA -0.0899, AGTGGTAT 0.117, TCCCGAAA -0.0737, TCAAGGAA 0.00378, ACTTGACA 0.169, CTCTTTAC 0.0068, GACGCGGC -0.0783, CAAGCGGC -0.0809, ACTACGGC -0.0896, CGACGTTA 0.0111, AAGCCCCT -0.163, ATATTGAC 0.121, GTAATACA 0.276, ACCATTAG 0.0637, TCACTTAA 0.123, GCACATGA 0.182, CCCGGTCA -0.117, AGAAAACC -0.0816, GGAATACC 0.00893, GCTATTAA 0.0366, ACATAGCT 0.125, ATTCTGTC 0.06, CGCTTTAA -0.0899, AATGTCAC 0.303, GTCTCTGA -0.0754, ACAACCGT 0.227, ACTCGAAA 0.00733, ACGTCCGC -0.0978, TACATCTA 0.298, GAGAGACC -0.184, CGTAACAA 0.243, CGAAGGAG -0.108, ACGAGTCG -0.00173, ATAAACTA 0.219, TTGACCAA 0.0404, ACAACCTA 0.263, ACATGGCC 0.246, AGCGGATG -0.0396, ATACACGG 0.299, GACAACCC 0.12, GACTTTCA -0.0584, AAATGATA 0.146, TGATAGCA 0.0376, CTGTCCGC -0.11, CTAATTAG 0.177, AGGGGCCC -0.238, GCACAAGC -0.0303, CACGATCC 0.104, CCGAAGGA -0.181, CGGCACTC -0.151, ATTCAGAA -0.0733, ACTATTCA 0.0869, CGGTGCAC -0.0731, CTATAGCC -0.199, CCGAGACA 0.0329, CCGTATAC 0.0248, CATGGCCC -0.169

PBM E-score, active:
ACAAGTAT 0.314, GTTGTCAA 0.339, ATGTAAAT 0.352

PBM E-score, ≥ 0.0656:
AGAGCTAC
